Reference: PubChem BioAssay AID1963576 (National Center for Advancing Translational Sciences (NCATS), 2024)
The campaign covered roughly 46,000 compounds. About 60 (0.1%) were called active. About 3% were inconclusive and are not listed. Calls come from the whole dose curve; as a rule, active = well fitted inhibition curve with a large enough effect; inconclusive = small, poorly fitted or top-dose-only effect; inactive = no such curve, though single readings can be large or run the other way. The list shows a part of the results.

test: Primary qHTS assay for Inhibitors of ovarian cancer metastasis using an organotypic tumor microenvironment (TME) model.; note: nearly all actives have a fitted effect of over 65% in size;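 for activity change, negative = inhibition: plate controls were DMSO wells for no effect and tomatine positive control wells for full effect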; conditions: SKOV3ip1-GFP adhesion/invasion on 3D omental model, fluorescence; series mostly up to 45.8 µM; activity change, negative = inhibition: at the top concentration
How it was run: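 qHTS, 4-pt dose (0.36-46 umol/L); SKOV3ip1-GFP, 1,200 cells/well, no FBS; primary omental fibroblast/mesothelial co-culture 48 h pre-grown; 2 h RT + 16 h 37 C; PBS wash, 4% PFA; GFP count 488/509 nm.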

Activity change, negative = inhibition, inactive:
Cc1ccc(NC(=O)CCCc2nnc3n(C)c(=O)c4sccc4n23)cc1C 26.6%
Cc1ccc(NC(=O)c2nc(S(C)(=O)=O)ncc2N(Cc2cccc(F)c2)Cc2ccco2)cc1C -14.2%
CCc1nn(CC(=O)NCc2ccco2)c(=O)c2cc3cc(F)ccc3n12 -5.37%
Cc1ccc(Cl)cc1-n1c(=O)c2sc3ccccc3c2n(CC(=O)NC2CCCC2)c1=O -6.77%
Cc1ccc(CCNC(=O)C2COc3ccccc3C2)cc1 (configuration not stated) -4.04%
Cc1ccc(S(=O)(=O)c2cn(C)c3cc(N4CCOCC4)c(F)cc3c2=O)c(C)c1 7.54%
Oc1c(C(c2ccc(F)cc2)N2CCCC2)sc2nc(-c3ccco3)nn12 (configuration not stated) 5.49%
Cc1ccc(CCNC(=O)Cn2ncc3c([nH]c4ccccc43)c2=O)cc1 -2.09%
Cc1cc(C)n(-c2nc3cc(Cl)ccc3nc2N2CCN(c3cccc(C)c3C)CC2)n1 3.14%
COc1ccc(NC(=O)N2CCC(CN3CCCC3)CC2)c(OC)c1 -8.59%
Clc1ccc(-c2ccc(CNCCSc3nnnn3-c3ccccc3)o2)cc1 -19%
COC(=O)c1ccccc1NC(=O)CSc1cc(-c2ccccc2)nc(C)n1 -3.58%
CCCCCN1C(C(=O)c2ccccc2)=C(NC(=O)c2ccc(OC)c(OC)c2)c2ccccc2S1(=O)=O -2.04%
COc1ccc(C)cc1NC(=O)CSc1nc(=O)n(Cc2cccnc2)c2c1CCC2 -2.66%
Clc1cccc(-n2ncc3c(NCCC4=CCCCC4)ncnc32)c1 -3.88%
COc1ccc(OC)c(C(=O)CN2C(=O)N(c3cc(C)cc(C)c3)S(=O)(=O)c3ccccc32)c1 -17.7%
CC(C)(C)OC(=O)N1CCC(c2c(C(=O)NCCN3CCOCC3)cnn2-c2cccc(F)c2)CC1 0.438%
CCN1CCN(c2oc(-c3ccc(COc4ccc(OC)cc4)o3)nc2C#N)CC1 -25.4%
COc1ccc(C2(CNC(=O)C(=O)Nc3ccc(C)c(Cl)c3)CCCC2)cc1OC -0.475%
COc1ccc(OC)c(NC(=O)Nc2cccc(OCc3cc(=O)n4cc(C)ccc4n3)c2)c1 18.9%
CC(NC(=O)c1cccc(Nc2nc3ccccc3n3nnnc23)c1)c1ccccc1 (configuration not stated) -7.58%
CS(=O)(=O)c1ccc(-c2cnc(N)c(C(=O)Nc3ccccc3)n2)cc1 13.1%
O=C(CSc1nc2c(c(=O)[nH]1)CCC2)Nc1cccc(O)c1 7.04%
COc1ccc(NC(=O)C2CCN(c3nc4ccccc4[nH]3)CC2)cc1OC 3.21%
NS(=O)(=O)c1cc(Cl)c(Cl)c(S(N)(=O)=O)c1 4.2%
Cc1ccc(NC(=O)CSc2nnc(C)s2)c(C)c1 -0.314%
CCCCN1C(=O)C(NC(=O)c2ccc(C(C)(C)C)cc2)(C(F)(F)F)C(C(=O)OC)=C1C (configuration not stated) 3.89%
COc1ccc(-c2nc(SCC(=O)NCc3nc4ccccc4n3C)n3[nH]c(=O)cc3n2)cc1 8.89%
Cc1ccc(S(=O)(=O)NCCc2nnc3ccc(SCc4cccc(F)c4)nn23)cc1 -4.96%
COc1ccc(-n2nnnc2C2CCN(S(=O)(=O)c3cc(Cl)ccc3OC)CC2)cc1 -7.73%
COc1cc(NC(=O)c2c(C)nn(-c3ccc(F)cc3)c2-n2cccc2)cc(OC)c1 -1.31%
Cc1ccc(N2CCN(c3ncnc4onc(-c5ccc(F)cc5)c34)CC2)c(C)c1 8.23%
CCn1c(=O)c2sccc2n2c(CCCC(=O)Nc3ccc(C)cc3)nnc12 -0.741%
CCOc1ccc(OCC)c(Nc2nc3ccccc3n3nnnc23)c1 -1.55%
Cc1ccc(Nc2c(-c3ccco3)nc3ccc(C)cn23)cc1 -0.347%
COc1ccc(-c2nc3ccccc3o2)cc1NC(=O)c1ccc(-c2ccc(C)c(Cl)c2)o1 4.39%
COc1cccc(CNC(=O)c2ccc3oc(=O)n(Cc4ccccc4)c3c2)c1 -18.9%
COc1ccc(NC(=O)c2c(NC(=O)c3cccc(C)c3)sc3c2CCC3)cc1 19.6%
COc1ccccc1Nc1ncc2c(n1)CCN(CC(C)C)C2 -3.5%
COc1ccc(NC(=O)CSC2=Nc3ccccc3C3=NC(Cc4ccccc4)C(=O)N23)cc1 (configuration not stated) 0.846%
Cc1cccc(-n2nnc(-c3nc(-c4cccs4)no3)c2N)c1C -11.9%
O=C(CN1C=NS(=O)(=O)c2ccccc21)Nc1ccc(Br)cc1 -7.28%
Cc1cccc(-c2nc(-c3ccc4c(c3)[nH]c(=O)n4C)no2)c1 8.72%
COc1cc(C)c(S(=O)(=O)Nc2cccc(-c3ccc(N4CCCC4)nn3)c2)cc1C -1.44%
O=C(Nc1ccc2oc(-c3cccc4c(Br)cccc34)nc2c1)c1ccc(Br)cc1 -9.01%
COc1ccccc1-c1c(C(F)(F)F)oc2c(CN3CCCCC3C)c(O)ccc2c1=O (configuration not stated) 10.6%
Cc1ccc(S(=O)(=O)N2CCC(C(=O)Nc3cc(C)ccc3C)CC2)cc1 -6.77%
Cc1cccc(NC(=O)CSc2nc3c(oc4ccccc43)c(=O)n2-c2ccccc2)c1C 8.2%
CCc1cc(=O)oc2cc(C)c3c(-c4ccc(F)cc4)coc3c12 46.5%
O=C(CSc1c2c(nc3ccccc13)CCC2)Nc1ccc(F)cc1F -1.58%
Cc1ccnc(NS(=O)(=O)c2ccc(NC(=O)Nc3ccc(S(=O)(=O)Nc4nccc(C)n4)cc3)cc2)n1 8.62%
CCOC(=O)c1[nH]c(C)c(CCC(=O)NCc2cccc(Cl)c2)c1C -1.45%
Cc1ccc(OCCSc2nc(-c3cccs3)nc3cc(=O)[nH]n23)cc1Cl -18.9%
COc1ccc(Cn2c(=O)c3oc4ccccc4c3n(Cc3ccccc3)c2=O)cc1 -1.94%
COc1cc(-c2cc3n(C)c(C)c(CCC(=O)Nc4ccc(F)cc4)c(=O)n3n2)cc(OC)c1OC 2.12%
COC(=O)c1ccc([C@@H]2Nc3c(cccc3C(F)(F)F)[C@@H]3C=CC[C@@H]32)cc1 3.4%
COc1ccccc1CCNC(=O)Cc1c(C)c2c(O)cc(C)cc2oc1=O 0.748%
Nc1nonc1-c1nc2ccccc2n1Cc1ccc(Br)cc1 -9.61%
Cc1ccc(NC(=O)CSc2nc3c(c(=O)[nH]2)CN(Cc2ccccc2)CC3)cc1Cl 13.3%
CC(=O)N1c2ccccc2C(=O)C1N1CCN(c2cccc(C)c2C)CC1 (configuration not stated) -17.7%
Cc1ccc(NC(=O)C2=CC(c3cccs3)=NS(=O)(=O)N2C)cc1 -1.29%
CC1(C)CC(=O)c2cc(C(=O)Nc3ccc(Cl)cc3)c(=O)[nH]c2C1 -8.05%
Cc1nc2scc(C)n2c(=O)c1S(=O)(=O)Nc1ccc(N2CCN(C(=O)C(C)C)CC2)cc1 -2.22%
CC(C)(Oc1ccc(Cl)cc1)C(=O)Nc1cccc(-c2cn3cccnc3n2)c1 9.9%
CC(CNC(=O)c1sc2ncccc2c1-n1cccc1)c1ccccc1 (configuration not stated) 0.658%
O=C(CC(c1cccs1)N1Cc2ccccc2C1=O)Nc1ccccc1F (configuration not stated) 34.1%
Cc1ccc(C(=O)NCCSc2c(C)[nH]c3ccccc23)cc1C -8.54%
COc1ccc(-c2nc(S(=O)(=O)c3ccc(Cl)cc3)c(N3CCCCCC3)o2)cc1 -24.4%
CCOc1cc(C2C(C(N)=O)=C(C)Nc3ncnn32)cc(Br)c1O (configuration not stated) 4.9%
Cc1ccc(-c2nn(CCC(=O)Nc3ccc(Cl)c(Cl)c3)c(=O)c3ccccc23)cc1 2.55%
COC(=O)c1cc2occc2n1Cc1ccc(F)cc1Cl 3.27%
Cc1ccc(CSC2=Nc3ccccc3C3=NC(CCC(=O)NCCc4ccccc4)C(=O)N23)cc1 (configuration not stated) -7.96%
Brc1ccc2nc(-c3ccccc3)c(Nc3ccc4c(c3)OCO4)n2c1 2.93%
CCC(=O)N1CCc2cc(CNC(=O)Nc3cc(Cl)ccc3C(=O)OC)ccc21 3.95%
CCc1cccc(NC(=O)C(CC(C)C)NS(=O)(=O)c2ccc3c(c2)oc(=O)n3C)c1 (configuration not stated) 5.02%
CC(C)(C)c1nc(-c2cccc(NS(=O)(=O)c3c(F)cccc3F)c2F)c(-c2ccnc(N)n2)s1 28%

outcome, inactive:
NS(=O)(=O)c1ccc(NC(=O)c2cc(-c3cccs3)nc3ccccc23)cc1
COc1ccc(N2CCN(c3ncnc4c3nc3n4CCCCC3)CC2)cc1
COc1ccccc1CNS(=O)(=O)c1c(C(=O)N2CCC(C)CC2)c(C)n(C)c1C
Cc1ccc2c(c1)-c1onc(C(=O)N3CCN(c4cc(C)ccc4C)CC3)c1CO2
O=C(C1CCCN(S(=O)(=O)c2cccc3nonc23)C1)N1CCN(c2ccccc2F)CC1 (configuration not stated)
O=C(CCn1c(=O)c2cccn2c2ccc(F)cc21)NCCc1ccc(Cl)cc1
CC(=O)c1ccc(N2C(=O)N(Cc3ccc(F)cc3)c3ccccc3S2(=O)=O)cc1
CCN(CC)S(=O)(=O)c1nnc(NC(=O)COc2ccccc2)s1
Cc1cc(O)c(C(c2ccc(F)cc2)N2CCN(c3ccccc3)CC2)c(=O)n1Cc1ccco1 (configuration not stated)
CCN(C(=O)c1cc2c(=O)oc3ccccc3c2s1)c1cccc(C(F)(F)F)c1
COc1ccc(CC(=O)Nc2c(C(=O)N3CCN(c4ccccc4F)CC3)oc3ccccc23)cc1OC
Cc1ccccc1CNC(=O)CCCn1ncn2c(cc3occc32)c1=O
CCN1C(=O)c2ccccc2S(=O)c2ccc(C(=O)N3CCN(c4ccc(F)cc4)CC3)cc21 (configuration not stated)
Cc1cc(F)ccc1NC(=O)CCS(=O)(=O)c1cccc2nsnc12
CC(=O)c1[nH]c(C)c(C(=O)NCc2ccc(Cl)cc2)c1C
Cc1ccccc1CN1C(=O)c2ccccc2Sc2ccc(C(=O)N3CCOCC3)cc21
Nc1nc2nc(-c3ccc(Cl)cc3)cc(C(F)(F)F)n2n1
Cc1ccc(NC(=O)CN2C(=O)CSc3ccc(S(=O)(=O)N(C)C)cc32)cc1C
CCc1noc(-c2ccc(N3CCCCC3)c([N+](=O)[O-])c2)n1
Cc1ccc(CN2C(=O)c3ccccc3Sc3ccc(C(=O)NCCCN4CCOCC4)cc32)cc1
Cc1cc(Cl)ccc1OCc1cc(=O)n2c3c(sc2n1)CCCC3
